From PMC11904967
No constants are given. Whether binding was seen depends on the method and setting. In cells and extracts the contact can be indirect. Some results given as binding are weak or reduced against the parent protein; the word gives no strength.

Amino acid sequences for entries named in this document (tags omitted).
UniProt O60260: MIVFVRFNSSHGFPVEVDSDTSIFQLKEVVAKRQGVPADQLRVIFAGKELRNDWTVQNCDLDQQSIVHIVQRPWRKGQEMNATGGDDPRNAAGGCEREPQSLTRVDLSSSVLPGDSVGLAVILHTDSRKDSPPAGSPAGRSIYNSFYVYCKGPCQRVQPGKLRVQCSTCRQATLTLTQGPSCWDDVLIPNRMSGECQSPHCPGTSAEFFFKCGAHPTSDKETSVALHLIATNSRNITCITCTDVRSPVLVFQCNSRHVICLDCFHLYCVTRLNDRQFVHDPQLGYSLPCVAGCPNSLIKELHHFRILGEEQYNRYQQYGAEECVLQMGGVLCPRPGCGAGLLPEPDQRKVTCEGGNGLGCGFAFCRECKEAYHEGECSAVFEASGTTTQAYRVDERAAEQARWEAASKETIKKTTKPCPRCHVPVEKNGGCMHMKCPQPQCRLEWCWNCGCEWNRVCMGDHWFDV
UniProt P14618: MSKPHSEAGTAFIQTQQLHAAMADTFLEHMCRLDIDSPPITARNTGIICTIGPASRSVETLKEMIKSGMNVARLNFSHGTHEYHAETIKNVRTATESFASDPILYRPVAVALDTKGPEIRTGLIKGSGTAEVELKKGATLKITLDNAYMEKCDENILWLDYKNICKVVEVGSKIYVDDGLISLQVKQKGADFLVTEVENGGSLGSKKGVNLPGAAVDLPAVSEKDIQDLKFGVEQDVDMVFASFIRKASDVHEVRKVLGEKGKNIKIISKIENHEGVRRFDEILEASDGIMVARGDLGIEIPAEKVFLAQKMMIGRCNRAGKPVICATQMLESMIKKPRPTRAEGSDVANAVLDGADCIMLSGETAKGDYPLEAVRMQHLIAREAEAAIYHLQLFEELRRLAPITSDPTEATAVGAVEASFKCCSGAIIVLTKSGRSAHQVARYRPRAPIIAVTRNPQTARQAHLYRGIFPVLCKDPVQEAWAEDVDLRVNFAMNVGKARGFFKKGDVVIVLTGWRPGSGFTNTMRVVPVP

Columns and labels:
[1] = biological target: GFP‐PRKN expressed in HEK‐293T cells (UniProt O60260); experiment: co-IP; HEK-293T cells expressing the constructs, NP-40 lysis buffer with 1% PMSF, antibody overnight at 4 °C, magnetic beads, western blotting (Figure 5A middle and bottom, Figure 5H)
[2] = biological target: E3 ubiquitin‐protein ligase parkin (PRKN), endogenous in PANC‐1 cells (human (endogenous in PANC-1)) (UniProt O60260); experiment: co-IP; PC cells treated with 10 µM orlistat for 48 h (Figure 7E)
[3] = biological target: E3 ubiquitin‐protein ligase parkin (PRKN), endogenous in PANC‐1 cells (human (endogenous in PANC-1)) (UniProt O60260); experiment: co-IP; anti-PRKN antibody, PANC-1 cells with rising doses of His-HACD2 (Figure 5C)
[4] = biological target: E3 ubiquitin‐protein ligase parkin (PRKN), endogenous in PANC‐1 cells (human (endogenous in PANC-1)) (UniProt O60260); experiment: co-IP; PRKN immunoprecipitated from PANC-1 cells transduced with HACD2, PKM2, PRKN or a vector control; blots for PKM2 and HACD2 (Figure 5B)

For “Flag‐PKM2 expressed in HEK‐293T cells (from UniProt P14618 1-531)”, the binding [1] was “binds”.

With “pyruvate kinase PKM (PKM2), endogenous in PANC‐1 cells (from UniProt P14618 1-531)” the binding [2] was “binds”, the binding [3] was “binds” and the binding [4] was “binds”.
